Measurements as given in paper PMC4336329 (PLoS ONE, 2015).
The whole screen tested about 310,000 compounds, of which about 14,000 (4.5%) showed an effect of 50% or more. The effect is printed as a negative number. This is one part of the list.

Molecular target: human ether-à-go-go-related gene (hERG) potassium channel (human, UniProt Q12809)
Assay: primary screen, population patch clamp on CHO cells stably expressing hERG
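Further: peak tail current of the secondary pulse compared with the same well before compound.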

Sequence of human ether-à-go-go-related gene (hERG) potassium channel (Q12809 whole entry, looked up): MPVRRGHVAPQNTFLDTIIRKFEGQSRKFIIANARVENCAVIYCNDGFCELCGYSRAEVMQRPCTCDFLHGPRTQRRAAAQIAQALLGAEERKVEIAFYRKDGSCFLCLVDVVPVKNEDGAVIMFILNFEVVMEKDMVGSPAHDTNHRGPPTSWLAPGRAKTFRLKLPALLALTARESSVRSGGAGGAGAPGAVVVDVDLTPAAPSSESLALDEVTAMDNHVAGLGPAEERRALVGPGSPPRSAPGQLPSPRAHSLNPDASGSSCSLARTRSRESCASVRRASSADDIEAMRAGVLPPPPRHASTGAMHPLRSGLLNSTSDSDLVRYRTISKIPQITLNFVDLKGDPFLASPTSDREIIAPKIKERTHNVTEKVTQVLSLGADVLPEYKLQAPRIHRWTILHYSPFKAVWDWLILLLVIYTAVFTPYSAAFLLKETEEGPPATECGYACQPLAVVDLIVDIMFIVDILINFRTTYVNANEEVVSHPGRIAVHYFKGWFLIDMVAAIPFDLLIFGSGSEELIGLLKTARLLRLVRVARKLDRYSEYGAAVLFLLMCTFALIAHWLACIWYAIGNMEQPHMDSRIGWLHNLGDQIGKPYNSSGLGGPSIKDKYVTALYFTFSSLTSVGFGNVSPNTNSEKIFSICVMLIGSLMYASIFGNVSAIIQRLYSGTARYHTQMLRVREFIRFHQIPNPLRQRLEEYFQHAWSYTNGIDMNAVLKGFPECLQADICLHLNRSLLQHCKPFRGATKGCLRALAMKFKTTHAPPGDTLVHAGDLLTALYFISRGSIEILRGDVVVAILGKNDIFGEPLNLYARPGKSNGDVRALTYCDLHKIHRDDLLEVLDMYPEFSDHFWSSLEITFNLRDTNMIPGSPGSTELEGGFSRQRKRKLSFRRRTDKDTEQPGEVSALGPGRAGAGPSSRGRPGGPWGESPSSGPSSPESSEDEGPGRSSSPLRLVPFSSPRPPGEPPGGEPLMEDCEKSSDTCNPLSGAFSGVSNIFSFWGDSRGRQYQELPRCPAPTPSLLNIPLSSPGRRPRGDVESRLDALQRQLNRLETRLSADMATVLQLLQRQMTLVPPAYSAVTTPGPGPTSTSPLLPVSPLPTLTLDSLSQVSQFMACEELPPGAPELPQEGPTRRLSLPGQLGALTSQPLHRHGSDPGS

Compound	hERG current change (%, negative = inhibition) at 10uM
CCOC(=O)C1(CCc2ccccc2)CCN(C(=O)c2occc2C)CC1	-63.3%
O=C(/C=C/c1cccnc1)c1ccc([N+](=O)[O-])cc1	-42.3%
Cc1cc(NC(=O)CSCC(=O)N(C)Cc2ccc(Cl)cc2Cl)no1	-17.2%
COc1ccc(-c2ccc(S(=O)(=O)N3CCOCC3)cc2)cc1	6.36%
COc1ccc(C(=O)NC(=S)NCc2cccnc2)cc1[N+](=O)[O-]	-12.3%
CN1CCN(CCOc2ccc(Cl)c(Cl)c2)CC1.O=C(O)C(=O)O	-22.3%
Cn1cnnc1SCC(=O)c1c[nH]c2ccccc12	14.5%
COc1cc(/C=C2\NC(=S)N(C)C2=O)ccc1O	13.5%
Cc1cc(C)nc(SCc2ccc(C(=O)N/N=C/c3cccc(O)c3O)cc2)n1	-13.3%
CCOCCCNC(=O)c1cn(CC)c2ccc(S(=O)(=O)N3CCOCC3)cc2c1=O	-2.23%
O=S(=O)(NCc1ccccc1)c1ccc(-n2cccn2)cc1	-16.6%
O=C(NC1CC(=O)N(c2ccc(Cl)cc2)C1)N1CCN(C(=O)c2ccco2)CC1 (stereo not drawn)	-91.6%
Cc1ccc(CSc2nnc([C@@H]3CCCN3C(=O)OC(C)(C)C)o2)cc1	-8.55%
CCOc1cc(N2CCOCC2)c(OCC)cc1NC(=O)COc1ncnc2ccccc12	-30.1%
COc1ccc(OC)c2sc(NC(=O)c3ccc(S(=O)(=O)N4CCOCC4)cc3)nc12	-2.05%
CN1CCc2c(c(N3CCCCC3)nc3n[nH]c(N)c23)C1	-14.5%
O=C(CN1CCN(S(=O)(=O)c2ccc(F)c(Cl)c2)CC1)N1CCc2ccccc21	-34.7%
CN1C(=O)c2cccc3c(Cl)ccc(c23)C1=O	-2.92%
CN(C)CCNc1c(N)c(=O)oc2ccccc12	1.89%
O=C(CN1C(=O)NC2(CCCC2)C1=O)Nc1nc(-c2ccccc2)cs1	25.6%
O=C1O/C(=C\C(=O)N2CCOCC2)c2ccccc21	9.84%
NS(=O)(=O)c1ccc(Sc2ccc3ccccc3c2)nc1	14.7%

Compound	hERG current change (%, negative = inhibition) at 10uM
Nc1c(C(=O)Nc2ccc(F)cc2)nnn1-c1cccc(C(F)(F)F)c1	11.2%
CCOc1ccccc1CN1CCN(Cc2cc3ccccc3[nH]2)CC1CCO (stereo not drawn)	-59.3%
O=C1c2ccccc2C2=Nc3ccccc3SC(c3cccc(F)c3)C12 (stereo not drawn)	11.1%
COc1cc(C(=O)Oc2ccc3c(c2)OCC3=O)cc(OC)c1OC	17.7%
COc1cccc(-c2nc(N3CCCC3)c3ccccc3n2)c1O	-5.65%
C/C(=N\NC(=S)Nc1ccccc1C)c1ccc(O)cc1	-20%
Cn1c(SCc2ccccc2)nnc1-c1cccs1	-5.16%
Cc1ccccc1C(=O)O/N=C(\N)c1ccncc1	15%
Cc1ccc(C(C)C)c(OCC#CCN2CCCC2)c1.O=C(O)C(=O)O	-37.9%
CC(C)CC1c2[nH]c3ccccc3c2CCN1C(=O)CCC(=O)N(C)C (stereo not drawn)	3.88%
CCOc1ccc(N2CC(O)=C(c3nc4ccccc4c(=O)[nH]3)C2=N)cc1	9.77%
Cn1c(NC(=O)CCc2ccccc2)cc(=O)n(C)c1=O	-0.422%
CCC(C)NC(=O)CCC(=O)Nc1ccc2nc(N3CC(C)CC(C)C3)cc(C)c2c1 (stereo not drawn)	-11.3%
O=C(Nc1ccc(NC(=O)c2ccco2)cc1)c1ccc2c(c1)OCO2	14.4%
CCCNC(=O)N1[C@H]2CC[C@@H]1C(C(=O)OC)=C(c1ccc(F)cc1F)C2	3.69%
O=[N+]([O-])c1ccc2c(c1)/C(=N\O)c1ccccc1-2	7.65%
CCOC(=O)/C=C/c1cnn(-c2ccccc2)c1	3%
O=C(CN1c2ccccc2S(=O)(=O)c2ccccc21)NCc1ccccc1	9.11%
O=C(CSc1nc(-c2ccco2)cc(C(F)(F)F)n1)N1CCc2ccccc2C1	-1.87%
Cc1nn(-c2ccc(Br)cc2)c(=O)c2ccccc12	6.19%
COc1cc(NC(=O)C2=COCCO2)c(OC)cc1Cl	9.11%
O=C(CC1(O)C(=O)N(C/C=C/c2ccccc2)c2ccccc21)c1ccccn1 (stereo not drawn)	2.19%

Compound	hERG current change (%, negative = inhibition) at 10uM
Cc1ccc(NC(=O)CSc2nnc(C3CCCCC3)n2N)cc1F	2.3%
Cc1ccc(C)c(OCCn2cc(/C=C(/C#N)C(=O)NCC3CCCO3)c3ccccc32)c1 (stereo not drawn)	13.5%
COc1ccc(C(CC(=O)NCC(OC)OC)NS(=O)(=O)c2ccc(Cl)cc2)cc1 (stereo not drawn)	3.73%
CN(CCCCN1CCOCC1)Cc1nc(-c2ccc3c(c2)OCO3)no1	-10.5%
O=C(CCn1c(=O)[nH]c2ccsc2c1=O)N1CCN(Cc2ccc3c(c2)OCO3)CC1	-18.2%
CCOC(=O)c1sc(=NC(=O)c2ccc(Br)cc2)n(C)c1C	8.14%
COc1ccc(NS(=O)(=O)c2cccc3nonc23)c(OC)c1	-8.46%
CN(C)S(=O)(=O)c1ccc(NC(=O)c2ccc(Br)o2)cc1	-9.84%
Cc1cc(OCC(=O)N2CCOCC2)ccc1[N+](=O)[O-]	2.35%
O=C(NNC(=S)NCc1ccccc1)c1ccc(Br)cc1	11.5%
Cc1ccc(NC(=O)c2nc[nH]c2C(=O)NCc2ccccc2)cc1	1.89%
Cn1ncc(Cl)c1C(=O)NCC1CCCO1 (stereo not drawn)	9.21%
Cc1c(C(=O)Nc2ccc(Cl)cn2)oc2ccccc12	16.8%
O=C(/C(=C/c1ccc(Cl)cc1)c1nc2ccccc2[nH]1)c1cccs1	2.82%
CN(Cc1nc(-c2ccc(Cl)cc2)no1)C(=O)c1ccc2c(c1)OCO2	-17.8%
CCC(C(=O)OCCN(CC)CC)c1ccccc1.O=C(O)CC(O)(CC(=O)O)C(=O)O (stereo not drawn)	4.45%
COc1ccccc1OCCNC(=O)C(CCSC)NC(=O)COc1ccccc1 (stereo not drawn)	-27.7%
CC(=O)Nc1ccc(NC(=O)c2ccccc2N(C)S(C)(=O)=O)cc1	9.15%
CCOC(=O)/C(=C\C=C1/Sc2ccccc2N1CC)C(C)=O	-19%
COc1ccc(OCC(=O)Nc2ccccc2Cl)cc1	13.7%
Cc1cc(C)cc(C(=O)Nc2ccc(N3CCN(S(C)(=O)=O)CC3)cc2)c1	15.7%
CCCN(CC(=O)Nc1ccccc1C)C(=O)c1ccc(N2CCCCC2)c([N+](=O)[O-])c1	-43.7%

Compound	hERG current change (%, negative = inhibition) at 10uM
CCOn1c(=O)c(-c2cccc(Br)c2)[n+]([O-])c2ccccc21	3.23%
COCC(=O)N1CCC(n2nccc2NC(=O)CCOc2ccccc2)CC1	17.4%
COc1cc(Cl)c(C)cc1NC(=O)CSc1ccc(NC(C)=O)cc1	0.375%
CCCn1nc([N+](=O)[O-])c(C(C#N)c2nc3ccccc3o2)c(Cl)c1=O (stereo not drawn)	19.5%
CN(C)CC#CCOC(c1ccccc1)c1ccccc1.Cl	-16.1%
COc1cc2c(cc1OC)C(c1cccs1)NCC2 (stereo not drawn)	1.72%
COc1cc2c(-c3cc(F)cc(F)c3)c(-c3ccsc3)oc(=O)c2cc1OC	9.35%
CCN1C(=O)/C(=C/c2ccc(N(CC)CC)cc2OC)C(=O)NC1=S	3.26%
COc1ccc(C(=O)Nc2ccc3c(c2)Cc2ccccc2-3)cc1	17.1%
O=C(Nc1ccc(-c2csc(Nc3cccc(C(F)(F)F)c3)n2)cc1)c1cc([N+](=O)[O-])cc(C(F)(F)F)c1	0.0561%
COc1ccc(CCn2c(O)c(C=NCc3ccc4c(c3)OCO4)c(=O)[nH]c2=O)cc1OC	-9.79%
O=C1CCCCCC1C1(O)C(=O)Nc2ccccc21 (stereo not drawn)	-1.78%
C#CCOCCOCCOCCNc1nc(N2CCN(C(=O)Cn3cc(CCC[NH+]=C(N)N)nn3)CC2)nc(N2CCN(C(=O)[C@H](CCCC[NH3+])n3cc(CCCC)nn3)CC2)n1.[Cl-]	7.39%
Cc1ccc(C(=O)N/C(=C\c2ccc(-c3cccc([N+](=O)[O-])c3)o2)C(=O)NC(C)(C)C)cc1	1.94%
COc1ccc(NC(=S)Nc2cccc(S(=O)(=O)N3CCCCC3)c2)cc1	-12%
COc1ccc(-c2noc(-c3ccccc3C(=O)NCc3ccco3)n2)cc1	3.2%
O=C(NCc1ccc(F)cc1)c1cc2c(s1)CCCC2	-7.45%
CN(C)CCNC(=S)Nc1ccc(-c2nc3ccccc3[nH]2)cc1	-4.03%
Nc1ccc2ccc3cccc[n+]3c2c1.[O-][Cl+3]([O-])([O-])[O-]	7.27%
O=C(CSc1nnc(-c2ccncc2)o1)NCc1ccc(Cl)cc1	-46.5%
CCc1ccccc1NC(=O)C1CCCN1S(=O)(=O)c1ccc(-c2ccc(=O)[nH]n2)s1 (stereo not drawn)	-54.7%
